From paper PMC7819943, “Rice protein-binding microarrays: a tool to detect cis-acting elements near promoter regions in rice”
The other results are listed elsewhere or left out.

biological target: T1, OsWOX13 (Oryza sativa, UniProt Q5QMM3 1-267); assay: protein-binding microarray (RPBM); PBS, 2% BSA, 51.3 ng/ul salmon testes DNA, 50 uM zinc acetate, 200 nM TF, 25 C, 1 h; high values mean tight binding; details: protein: recombinant; tags: N-terminal polyhistidine and DsRed monomer fusion (pET32a); label: CyDye5-dUTP incorporated in the synthesized complementary strand; 3' TTTTT single-stranded linker to array surface; dsDNA, one strand shown
T1 sequence: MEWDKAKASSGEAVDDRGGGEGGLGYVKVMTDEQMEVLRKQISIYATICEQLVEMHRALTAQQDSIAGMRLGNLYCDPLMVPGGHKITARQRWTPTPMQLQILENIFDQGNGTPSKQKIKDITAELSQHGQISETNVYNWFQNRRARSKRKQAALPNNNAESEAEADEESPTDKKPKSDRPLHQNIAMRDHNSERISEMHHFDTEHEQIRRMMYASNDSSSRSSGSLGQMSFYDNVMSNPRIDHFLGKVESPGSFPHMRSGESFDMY
Method in brief: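 Transcription factors, each fused N-terminally to a polyhistidine tag and DsRed, were expressed in E. coli BL21-CodonPlus and purified on Ni–NTA. A custom Agilent array was made double-stranded by primer extension with Cy5-dUTP and blocked with 2% BSA. It was incubated with 200 nM protein in PBS, 2% BSA, salmon testes DNA and 50 µM zinc acetate at 25 °C for 1 h, then washed. The binding signal is per-feature fluorescence intensity (arbitrary units) read on an Axon 4000B scanner.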

| Sequence | binding signal |
| --- | --- |
| TTAAAAGAAAACTCACATGATGATTTGCTTTAATTTAGTACGGAGTCACCTAGTGCAG | 5520 fluorescence intensity (a.u.) |
| TATATATATATATATATATGAATATGGGCAATACTAGAAACGGAGTCACCTAGTGCAG | 6640 fluorescence intensity (a.u.) |
| ATGTAATTCTTAAAGTTAAATTAATATTAGTAGGATTGCTCGGAGTCACCTAGTGCAG | 4410 fluorescence intensity (a.u.) |
| AGTAATTGCCTTTTGAATTAACTAACCAGGTGAATTTCCCCGGAGTCACCTAGTGCAG | 39400 fluorescence intensity (a.u.) |
| GTGATACATTGGTAAATTACCCCGTTTAAAATGAAAACATCGGAGTCACCTAGTGCAG | 5260 fluorescence intensity (a.u.) |
| TTCAATTTATGCACAATTACAAATTGTTTTCTTTAAGTTTCGGAGTCACCTAGTGCAG | 7680 fluorescence intensity (a.u.) |
| CTACTAATCACACCTCATCTGCGAAATATGAGATCCTACGCGGAGTCACCTAGTGCAG | 11100 fluorescence intensity (a.u.) |
| ATATATACATTACTACATATAATTGTTTCTGGGAAGTAGCCGGAGTCACCTAGTGCAG | 5370 fluorescence intensity (a.u.) |
| CTGCTAATTTTATCGTCAGATCAAACTTAAAGCAAAGCAACGGAGTCACCTAGTGCAG | 6360 fluorescence intensity (a.u.) |
| ATTAATGTTAATGAATATCAATATGAATATGGGAAATGCTCGGAGTCACCTAGTGCAG | 5480 fluorescence intensity (a.u.) |
| AAGCATGATTATTCAATTCGTCTTATGCAAGCAAAAGTGTCGGAGTCACCTAGTGCAG | 12600 fluorescence intensity (a.u.) |
| TGGCGGATTGATCTGGAGGTGGGCTTGTTGGGGTTGCTGTCGGAGTCACCTAGTGCAG | 14400 fluorescence intensity (a.u.) |
| ATGATAGATTATTATAATCTATAAGCCAGATTAGTATAATCGGAGTCACCTAGTGCAG | 44100 fluorescence intensity (a.u.) |
| AGTGCTTGACTGCTTGGTTAGGAAGGAAATTAAAGTTGGGCGGAGTCACCTAGTGCAG | 4730 fluorescence intensity (a.u.) |
| TTTAATGGGAATATGAAACCGTGGCTTGATGTTGCGTTGACGGAGTCACCTAGTGCAG | 3890 fluorescence intensity (a.u.) |
| AATAAATTTCAGACCAAAATTGATGGAATGCAGACAATATCGGAGTCACCTAGTGCAG | 14300 fluorescence intensity (a.u.) |
| ATAATTAGATGTGATATATTATAGTACAACGAATCTTGACCGGAGTCACCTAGTGCAG | 40000 fluorescence intensity (a.u.) |
| AACGTATGAATGTCATTAATTAAGGGTGTGTGGTGAAATTCGGAGTCACCTAGTGCAG | 4770 fluorescence intensity (a.u.) |
| TGCTAAACTTTATCAAGGTTTTAATTTTGATAAAGATGGACGGAGTCACCTAGTGCAG | 4050 fluorescence intensity (a.u.) |
| TTCTTGTGAGATGCCAATCAATAACAAAATCGCAGTACAACGGAGTCACCTAGTGCAG | 7600 fluorescence intensity (a.u.) |
| AGTAATTAAGGAGTCAATAATAAATCATACTATAGAAGTACGGAGTCACCTAGTGCAG | 6530 fluorescence intensity (a.u.) |
| GCCCGGTGTTGATTGTGAGTGGCTCGGTGTTCGCCATCTCCGGAGTCACCTAGTGCAG | 10100 fluorescence intensity (a.u.) |
| TCCTGATTGTTCACAATTGTGCTAGTTCAAACAAGGCAAACGGAGTCACCTAGTGCAG | 24800 fluorescence intensity (a.u.) |
| TAGTTAATTTCTTAAGTACTACTTAATACAAAATTCCACTCGGAGTCACCTAGTGCAG | 6340 fluorescence intensity (a.u.) |
| TCTATAATTTAATAATTTATTAAATTTTAGAGAATTAAAACGGAGTCACCTAGTGCAG | 12000 fluorescence intensity (a.u.) |
| TGATGATTAGCATCCCAACCAATCAGAAATTCTGAACATGCGGAGTCACCTAGTGCAG | 47200 fluorescence intensity (a.u.) |
| GTAGATTGACTGCGGACAACAAAGCTGAGTCAGCGTGGGACGGAGTCACCTAGTGCAG | 50000 fluorescence intensity (a.u.) |

| Sequence | binding signal |
| --- | --- |
| GGAGCGGGACTGATTGCGGATGCATTTGCAGAAGATTGGTCGGAGTCACCTAGTGCAG | 8060 fluorescence intensity (a.u.) |
| ATGTGACTGAAAAGTTGTGTGTGTATGACAGGTTGATGTGCGGAGTCACCTAGTGCAG | 12400 fluorescence intensity (a.u.) |
| TGGGAATTGGGAGCAGTGACGTGCTCCATGCATGCATATGCGGAGTCACCTAGTGCAG | 6400 fluorescence intensity (a.u.) |
| TCATTTGATTTATTGTTAAATATACTTTTATGTATACATACGGAGTCACCTAGTGCAG | 27500 fluorescence intensity (a.u.) |
| GATGACGAACTAGATTTGGTGAACAATTAAGGGTGTCTAACGGAGTCACCTAGTGCAG | 10100 fluorescence intensity (a.u.) |
| TTATAACACAAATAATATAATAGATATATAGACTGTTGTCCGGAGTCACCTAGTGCAG | 3650 fluorescence intensity (a.u.) |
| ATGAAATAATTGCAAGGCGTCTTGCAGACAGTGGGCAGTCCGGAGTCACCTAGTGCAG | 7400 fluorescence intensity (a.u.) |
| ATAATTCAAATTCAAATTTGAATCGGGGATGTAAACTTTTCGGAGTCACCTAGTGCAG | 4020 fluorescence intensity (a.u.) |
| TTTACTTCAATTCTATTCAATTGAAATTAGCAACTTGCCGCGGAGTCACCTAGTGCAG | 3300 fluorescence intensity (a.u.) |
| ATTAACTATAAATAATTTAAATAAATAATTTGAAGCTAGCCGGAGTCACCTAGTGCAG | 28000 fluorescence intensity (a.u.) |
| ATAATAGGTTAATGATAGTATATTGGTGTTTTAAAAGCTACGGAGTCACCTAGTGCAG | 5080 fluorescence intensity (a.u.) |
| ATACTAATCATAAAATAAATTTATATAAGATGAACGGTCACGGAGTCACCTAGTGCAG | 16200 fluorescence intensity (a.u.) |
| GCATGATTGCATTAATTTGGTCCATTAGTCGCAACTGCCACGGAGTCACCTAGTGCAG | 50100 fluorescence intensity (a.u.) |
| ACTTACTATTTATCACTTTGACAGTGACTCTTTTGTATATCGGAGTCACCTAGTGCAG | 3260 fluorescence intensity (a.u.) |
| TCCATTAACATTTGCCATTATCGTACTGACTTTCGTACGACGGAGTCACCTAGTGCAG | 3710 fluorescence intensity (a.u.) |
| TTGATTGGGTGTTTAATCGGGTATAGTCAGGTGTCTGCCTCGGAGTCACCTAGTGCAG | 51400 fluorescence intensity (a.u.) |
| CTTATAAATTGACTCAAATACGGATATATATTTTCAAAAGCGGAGTCACCTAGTGCAG | 15900 fluorescence intensity (a.u.) |
| GTTGAGATTAATTGTTCTATACTACTTTCTCTATCTAAAACGGAGTCACCTAGTGCAG | 7990 fluorescence intensity (a.u.) |
| GACGAAAATGATTGGTAAAAGTATGGGCAACCTTCTCCCTCGGAGTCACCTAGTGCAG | 35400 fluorescence intensity (a.u.) |
| TTTAATTTGTAAACGTGCAATACCACATGTTGTATTGGTCCGGAGTCACCTAGTGCAG | 40900 fluorescence intensity (a.u.) |
| GATAGAGACTAATTTTAATCAACCATCCATGACGTGTTAACGGAGTCACCTAGTGCAG | 8770 fluorescence intensity (a.u.) |
| CTTTAATTTCAATCTATGTACTTAATAATATAGGAATACTCGGAGTCACCTAGTGCAG | 32000 fluorescence intensity (a.u.) |
| AGTTCAGATTGAAAATTTTGAAAACTTTCAATTTGAGATTCGGAGTCACCTAGTGCAG | 28600 fluorescence intensity (a.u.) |
| TTAAAATTTTCAATTATTCTTTTAAAACTTTTAACTAAATCGGAGTCACCTAGTGCAG | 4750 fluorescence intensity (a.u.) |
| GGGTCTATTTCAAATCATCATGTAACATCGGAATTCAAGTCGGAGTCACCTAGTGCAG | 5260 fluorescence intensity (a.u.) |
| TATAAAATCATGAGCTGTAATTAGGGTTCCGATCATCTCACGGAGTCACCTAGTGCAG | 12300 fluorescence intensity (a.u.) |
| ATCAAATCATATCCAATCCTTTGAAATTCCTATGGAATGGCGGAGTCACCTAGTGCAG | 4340 fluorescence intensity (a.u.) |
